We go through 115 sequences from the BET-seq Pho4 binding data (Le et al. 2018).

The other results are listed elsewhere or left out. The energies were worked out here from pooled read counts, against the library average; single values are noisy.

The assay addresses T1, Pho4 (S. cerevisiae) (UniProt P07270).
T1 sequence: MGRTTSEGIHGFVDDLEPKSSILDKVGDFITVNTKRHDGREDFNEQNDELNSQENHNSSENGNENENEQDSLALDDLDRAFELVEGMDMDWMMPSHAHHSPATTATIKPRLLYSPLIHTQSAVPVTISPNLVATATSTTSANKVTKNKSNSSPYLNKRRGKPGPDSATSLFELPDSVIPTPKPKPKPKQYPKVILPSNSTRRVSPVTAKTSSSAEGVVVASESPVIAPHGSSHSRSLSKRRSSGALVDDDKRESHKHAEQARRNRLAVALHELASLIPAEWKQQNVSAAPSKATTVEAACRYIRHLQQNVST
Nature of the assay: relative binding free energy (BET-seq); higher = weaker binding. The note with it: reference: library average.
Regarding AGTACCACGTGCGGGG, the “relative binding free energy” value was -0.18 kcal/mol.

Regarding CGAGGCACGTGGGGCG, the “relative binding free energy” value was -0.21 kcal/mol.

In the case of TGTGTCACGTGAGGAT, the “relative binding free energy” value stood at 0.32 kcal/mol.

As for GGGCTCACGTGAGTCG, the “relative binding free energy” value was determined as 0.43 kcal/mol.

Regarding CATTGCACGTGGTAGT, the “relative binding free energy” value is -0.16 kcal/mol.

For the sequence TTGGGCACGTGCTGGC, the “relative binding free energy” value was -0.14 kcal/mol.

On to GTCGTCACGTGGAGGG, for which the “relative binding free energy” value was 0.05 kcal/mol.

For TGTGACACGTGTTAAT, the “relative binding free energy” value turned out to be 0.03 kcal/mol.

TAATTCACGTGTGGTC: the “relative binding free energy” value worked out at 0.38 kcal/mol.

Take CTTAACACGTGGGAAG: the “relative binding free energy” value came to 0.19 kcal/mol.

For the sequence AGGGTCACGTGTTGCG, the “relative binding free energy” value is 0.06 kcal/mol.

Consider AATTTCACGTGAAAGG, for which the “relative binding free energy” value came to 0.24 kcal/mol.

With GGTCTCACGTGTAGCG, the “relative binding free energy” value came to 0.21 kcal/mol.

For ATCGGCACGTGAGTTT, the “relative binding free energy” value was found to be 0.18 kcal/mol.

For AAGGACACGTGTGTAG, the “relative binding free energy” value was -0.02 kcal/mol.

As for GGCAACACGTGAGAGG, the “relative binding free energy” value is 0.45 kcal/mol.

As for AAGGACACGTGGGGGG, the “relative binding free energy” value was -0.05 kcal/mol.

Regarding TTTATCACGTGCCTGG, the “relative binding free energy” value was 0.07 kcal/mol.

Take TTATTCACGTGAGGTA: the “relative binding free energy” value came out at 0.37 kcal/mol.

Consider ACGTGCACGTGGGTTT, for which the “relative binding free energy” value is -0.06 kcal/mol.

For TTAGGCACGTGGTAGG, the “relative binding free energy” value was -0.16 kcal/mol.

On to GTTGGCACGTGTAAGG, for which the “relative binding free energy” value came to 0.05 kcal/mol.

Consider TAGGGCACGTGCGGGT, for which the “relative binding free energy” value is -0.09 kcal/mol.

TTGAACACGTGCGTTG: the “relative binding free energy” value is 0.06 kcal/mol.

For ATGTACACGTGTAGCG, the “relative binding free energy” value amounted to 0.2 kcal/mol.

For CTAAGCACGTGGTATG, the “relative binding free energy” value is -0.23 kcal/mol.

With GTTGGCACGTGGAACG, the “relative binding free energy” value was 0.1 kcal/mol.

As to TCATTCACGTGCTTGT, the “relative binding free energy” value was determined as 0.2 kcal/mol.

As for TTTTACACGTGTCATA, the “relative binding free energy” value was 0.16 kcal/mol.

Regarding TTGGTCACGTGTGCAA, the “relative binding free energy” value was 0.11 kcal/mol.

TCGTGCACGTGCGTTT: the “relative binding free energy” value was -0.12 kcal/mol.

Take ATATGCACGTGTAATT: the “relative binding free energy” value was -0.02 kcal/mol.

In the case of TTGTGCACGTGTCAGC, the “relative binding free energy” value is -0.07 kcal/mol.

On to GGTAACACGTGTTAGC, for which the “relative binding free energy” value amounted to 0.1 kcal/mol.

Turning to TTTGGCACGTGGGTAC, the “relative binding free energy” value is -0.19 kcal/mol.

In the case of GGATTCACGTGGGTGC, the “relative binding free energy” value was determined as 0.22 kcal/mol.

GTCGGCACGTGGAGAT: the “relative binding free energy” value was found to be 0.08 kcal/mol.

Consider CATGACACGTGGGTAG, for which the “relative binding free energy” value is -0.15 kcal/mol.

For the sequence TTTATCACGTGTCGAT, the “relative binding free energy” value came to 0.24 kcal/mol.

As for TTTTACACGTGGTTCA, the “relative binding free energy” value worked out at 0 kcal/mol.

As for TTGTCCACGTGGATGG, the “relative binding free energy” value was determined as 0.05 kcal/mol.

Turning to GGTGGCACGTGGTACG, the “relative binding free energy” value is -0.17 kcal/mol.

Turning to TAGGTCACGTGCTTGT, the “relative binding free energy” value came to 0.09 kcal/mol.

For GGAGTCACGTGGCTGG, the “relative binding free energy” value was found to be 0.13 kcal/mol.

As to TGTGGCACGTGGGTCC, the “relative binding free energy” value is -0.18 kcal/mol.

For GGCGCCACGTGGGGTT, the “relative binding free energy” value was -0.24 kcal/mol.

Regarding ACTGTCACGTGTCGGG, the “relative binding free energy” value is -0.03 kcal/mol.

For GGAGCCACGTGGAGTG, the “relative binding free energy” value came to 0.03 kcal/mol.

As to TTGAACACGTGGATGA, the “relative binding free energy” value was determined as 0.06 kcal/mol.

As to ATTTGCACGTGTGTCT, the “relative binding free energy” value came to 0.07 kcal/mol.

Take GAATTCACGTGGGGAT: the “relative binding free energy” value was found to be 0.17 kcal/mol.

In the case of TGAATCACGTGTCTGT, the “relative binding free energy” value stood at 0.11 kcal/mol.

For the sequence AGGTTCACGTGTTCTT, the “relative binding free energy” value is 0.15 kcal/mol.

As for GGGAACACGTGCGGAG, the “relative binding free energy” value was 0.08 kcal/mol.

Take GGTGGCACGTGGATGC: the “relative binding free energy” value was -0.22 kcal/mol.

As to CTCGGCACGTGGTGAG, the “relative binding free energy” value was -0.13 kcal/mol.

For AAGGTCACGTGTCGAT, the “relative binding free energy” value was 0.07 kcal/mol.

AGGGACACGTGGGGGG: the “relative binding free energy” value is -0.15 kcal/mol.

For the sequence GGTCTCACGTGTGGTC, the “relative binding free energy” value was determined as 0.26 kcal/mol.

As for GCGCGCACGTGAGGGT, the “relative binding free energy” value is 0.14 kcal/mol.

On to TCTTGCACGTGGGATA, for which the “relative binding free energy” value is -0.04 kcal/mol.

As to TTTCGCACGTGCTGTT, the “relative binding free energy” value is -0.06 kcal/mol.

For TTTGGCACGTGCTCTT, the “relative binding free energy” value is -0.24 kcal/mol.

For TGAGGCACGTGTTATC, the “relative binding free energy” value is 0.02 kcal/mol.

As to AAGATCACGTGGGGGG, the “relative binding free energy” value is 0.06 kcal/mol.

Turning to TTTAGCACGTGTGGAC, the “relative binding free energy” value worked out at 0.07 kcal/mol.

For the sequence TGTTTCACGTGATAGG, the “relative binding free energy” value is 0.33 kcal/mol.

With TGACGCACGTGGGGCG, the “relative binding free energy” value is -0.22 kcal/mol.

Consider TATGGCACGTGTTATT, for which the “relative binding free energy” value is -0.03 kcal/mol.

GATTACACGTGGGGCG: the “relative binding free energy” value worked out at 0 kcal/mol.

Regarding GGTTACACGTGATGCG, the “relative binding free energy” value stood at 0.38 kcal/mol.

Consider TATTGCACGTGACTTG, for which the “relative binding free energy” value turned out to be 0.08 kcal/mol.

As to GGGGGCACGTGGATTT, the “relative binding free energy” value amounted to 0.02 kcal/mol.

With GTGGACACGTGGATGT, the “relative binding free energy” value amounted to 0.12 kcal/mol.

As to TGTTCCACGTGGTGAA, the “relative binding free energy” value is -0.07 kcal/mol.

For AGTGTCACGTGGGGCC, the “relative binding free energy” value is -0.03 kcal/mol.

With TTGCTCACGTGTGCTA, the “relative binding free energy” value was found to be 0.24 kcal/mol.

In the case of GTTCGCACGTGTTTAT, the “relative binding free energy” value was 0.04 kcal/mol.

In the case of ACATGCACGTGTTAGT, the “relative binding free energy” value was -0.06 kcal/mol.

With TGGAGCACGTGATTGA, the “relative binding free energy” value amounted to 0.11 kcal/mol.

In the case of CAGATCACGTGAGGTT, the “relative binding free energy” value was 0.34 kcal/mol.

Consider ATGAGCACGTGAGAGT, for which the “relative binding free energy” value was -0.02 kcal/mol.

On to AGGAGCACGTGTCTTG, for which the “relative binding free energy” value is -0.12 kcal/mol.

As for GTATACACGTGGAAGG, the “relative binding free energy” value was 0.05 kcal/mol.

Take TTTAGCACGTGTCAAT: the “relative binding free energy” value was 0.08 kcal/mol.

For the sequence GAGTGCACGTGGGCGC, the “relative binding free energy” value was -0.09 kcal/mol.

For TGGACCACGTGTTAGT, the “relative binding free energy” value came out at 0.08 kcal/mol.

As for GTGGCCACGTGCTGTG, the “relative binding free energy” value was -0.13 kcal/mol.

On to CTGAACACGTGGTCGG, for which the “relative binding free energy” value is -0.01 kcal/mol.

As for TGGGGCACGTGAGAGC, the “relative binding free energy” value is 0 kcal/mol.

As for ACGTGCACGTGAGATT, the “relative binding free energy” value came to 0.18 kcal/mol.

Take TGAGGCACGTGGTAAG: the “relative binding free energy” value is -0.21 kcal/mol.

Take GTAGACACGTGGAGTG: the “relative binding free energy” value was -0.07 kcal/mol.

Take CTATTCACGTGTGTTG: the “relative binding free energy” value is 0.08 kcal/mol.

As for TTTCGCACGTGTATGG, the “relative binding free energy” value is -0.04 kcal/mol.

Turning to CGTTTCACGTGGAGGT, the “relative binding free energy” value is 0.19 kcal/mol.

Turning to ATGTACACGTGGGATA, the “relative binding free energy” value is -0.2 kcal/mol.

For the sequence AGGCGCACGTGGGTAA, the “relative binding free energy” value was -0.18 kcal/mol.

As to AGTTTCACGTGCTGTA, the “relative binding free energy” value worked out at 0.22 kcal/mol.

Consider GGGGGCACGTGTAAAG, for which the “relative binding free energy” value was 0.12 kcal/mol.

In the case of AGTTTCACGTGTAAGA, the “relative binding free energy” value is 0.46 kcal/mol.

TCATGCACGTGGGTAT: the “relative binding free energy” value was -0.28 kcal/mol.

In the case of GCGTGCACGTGATTTT, the “relative binding free energy” value came out at 0.12 kcal/mol.

With TTTAGCACGTGCAGTT, the “relative binding free energy” value came out at 0.02 kcal/mol.

Consider AAAGGCACGTGGGTTA, for which the “relative binding free energy” value is -0.31 kcal/mol.

Consider TTTTCCACGTGAGAGG, for which the “relative binding free energy” value is 0.32 kcal/mol.

On to CTGGTCACGTGGGAAA, for which the “relative binding free energy” value stood at 0.22 kcal/mol.

Consider GGGTCCACGTGTAGGT, for which the “relative binding free energy” value came to 0.02 kcal/mol.

As to GGTTACACGTGGTCTG, the “relative binding free energy” value was 0.16 kcal/mol.

In the case of CTGGCCACGTGTGGGG, the “relative binding free energy” value was -0.05 kcal/mol.

GCTGGCACGTGTGGGC: the “relative binding free energy” value was -0.12 kcal/mol.

As for TATTTCACGTGAGTGT, the “relative binding free energy” value was found to be 0.39 kcal/mol.

For GGTAGCACGTGGGGAC, the “relative binding free energy” value was -0.16 kcal/mol.

Turning to TGTCTCACGTGCGTGT, the “relative binding free energy” value was determined as 0.1 kcal/mol.

In the case of AGCGTCACGTGTTGGA, the “relative binding free energy” value is -0.08 kcal/mol.
